Test results: the supplement of paper PMC8728848
The other results are listed elsewhere or left out.

Assays:
Experiment in all cases: glycan array binding signal (z-score within array); higher = stronger binding
Conditions in all cases: glycan notation: IUPAC condensed, linker removed
[1] = target: GlcNAc(b1-3)Gal(b1-3)GalNAc
Summary of the method: (§1)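 The binding signal is a Z-score computed within each array and averaged over linkers. Arrays of the same protein sequence at different concentrations or buffers were also averaged together. Data originate from 3228 arrays in the Consortium for Functional Glycomics database, kept only where the protein sequence was available.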

GlcNAc(b1-3)Gal(b1-4)Glc = target: GlcNAc(b1-3)Gal(b1-4)Glc
Summary of the method: as §1

[2] = target: GlcNAc(b1-3)Gal(b1-4)GlcNAc
Summary of the method: as §1

[3] = target: GlcNAc(b1-3)Gal(b1-4)GlcNAc(b1-2)Man(a1-3)[GlcNAc(b1-3)Gal(b1-4)GlcNAc(b1-2)Man(a1-6)]Man(b1-4)GlcNAc(b1-4)GlcNAc
Summary of the method: as §1

[4] = target: GlcNAc(b1-3)Gal(b1-4)GlcNAc(b1-2)Man(a1-3)[GlcNAc(b1-3)Gal(b1-4)GlcNAc(b1-2)Man(a1-6)]Man(b1-4)GlcNAc(b1-4)[Fuc(a1-6)]GlcNAc
Summary of the method: as §1

[5] = target: GlcNAc(b1-3)Gal(b1-4)GlcNAc(b1-2)[GlcNAc(b1-3)Gal(b1-4)GlcNAc(b1-6)]Man(a1-6)[GlcNAc(b1-3)Gal(b1-4)GlcNAc(b1-2)Man(a1-3)]Man(b1-4)GlcNAc(b1-4)GlcNAc
Summary of the method: as §1

[6] = target: GlcNAc(b1-3)Gal(b1-4)GlcNAc(b1-3)Gal(b1-4)GlcNAc
Summary of the method: as §1

[7] = target: GlcNAc(b1-3)Gal(b1-4)GlcNAc(b1-3)Gal(b1-4)GlcNAc(b1-2)Man(a1-3)[GlcNAc(b1-3)Gal(b1-4)GlcNAc(b1-3)Gal(b1-4)GlcNAc(b1-2)Man(a1-6)]Man(b1-4)GlcNAc(b1-4)GlcNAc
Summary of the method: as §1

[8] = target: GlcNAc(b1-3)Gal(b1-4)GlcNAc(b1-3)Gal(b1-4)GlcNAc(b1-2)Man(a1-3)[GlcNAc(b1-3)Gal(b1-4)GlcNAc(b1-3)Gal(b1-4)GlcNAc(b1-2)Man(a1-6)]Man(b1-4)GlcNAc(b1-4)[Fuc(a1-6)]GlcNAc
Summary of the method: as §1

[9] = target: GlcNAc(b1-3)Gal(b1-4)GlcNAc(b1-3)Gal(b1-4)GlcNAc(b1-2)[GlcNAc(b1-3)Gal(b1-4)GlcNAc(b1-3)Gal(b1-4)GlcNAc(b1-6)]Man(a1-6)[GlcNAc(b1-3)Gal(b1-4)GlcNAc(b1-3)Gal(b1-4)GlcNAc(b1-2)Man(a1-3)]Man(b1-4)GlcNAc(b1-4)[Fuc(a1-6)]GlcNAc
Summary of the method: as §1

[10] = target: GlcNAc(b1-3)Gal(b1-4)GlcNAc(b1-3)Gal(b1-4)GlcNAc(b1-3)Gal(b1-4)GlcNAc(b1-2)Man(a1-3)[GlcNAc(b1-3)Gal(b1-4)GlcNAc(b1-3)Gal(b1-4)GlcNAc(b1-3)Gal(b1-4)GlcNAc(b1-2)Man(a1-6)]Man(b1-4)GlcNAc(b1-4)GlcNAc
Summary of the method: as §1

[11] = target: GlcNAc(b1-3)Gal(b1-4)GlcNAc(b1-3)Gal(b1-4)GlcNAc(b1-3)Gal(b1-4)GlcNAc(b1-2)Man(a1-3)[GlcNAc(b1-3)Gal(b1-4)GlcNAc(b1-3)Gal(b1-4)GlcNAc(b1-3)Gal(b1-4)GlcNAc(b1-2)Man(a1-6)]Man(b1-4)GlcNAc(b1-4)[Fuc(a1-6)]GlcNAc
Summary of the method: as §1

[12] = target: GlcNAc(b1-3)Gal(b1-4)GlcNAc(b1-3)Gal(b1-4)GlcNAc(b1-3)Gal(b1-4)GlcNAc(b1-2)[GlcNAc(b1-3)Gal(b1-4)GlcNAc(b1-3)Gal(b1-4)GlcNAc(b1-3)Gal(b1-4)GlcNAc(b1-6)]Man(a1-6)[GlcNAc(b1-3)Gal(b1-4)GlcNAc(b1-3)Gal(b1-4)GlcNAc(b1-3)Gal(b1-4)GlcNAc(b1-2)Man(a1-3)]Man(b1-4)GlcNAc(b1-4)[Fuc(a1-6)]GlcNAc
Summary of the method: as §1

[13] = target: GlcNAc(b1-3)Gal(b1-4)GlcNAc(b1-3)Gal(b1-4)GlcNAc(b1-3)Gal(b1-4)GlcNAc(b1-3)Gal(b1-4)GlcNAc(b1-2)Man(a1-3)[GlcNAc(b1-3)Gal(b1-4)GlcNAc(b1-3)Gal(b1-4)GlcNAc(b1-3)Gal(b1-4)GlcNAc(b1-3)Gal(b1-4)GlcNAc(b1-2)Man(a1-6)]Man(b1-4)GlcNAc(b1-4)GlcNAc
Summary of the method: as §1

[14] = target: GlcNAc(b1-3)Gal(b1-4)GlcNAc(b1-3)Gal(b1-4)GlcNAc(b1-3)Gal(b1-4)GlcNAc(b1-3)Gal(b1-4)GlcNAc(b1-2)Man(a1-3)[GlcNAc(b1-3)Gal(b1-4)GlcNAc(b1-3)Gal(b1-4)GlcNAc(b1-3)Gal(b1-4)GlcNAc(b1-3)Gal(b1-4)GlcNAc(b1-2)Man(a1-6)]Man(b1-4)GlcNAc(b1-4)[Fuc(a1-6)]GlcNAc
Summary of the method: as §1

[15] = target: GlcNAc(b1-3)Gal(b1-4)GlcNAc(b1-3)Gal(b1-4)GlcNAc(b1-3)Gal(b1-4)GlcNAc(b1-3)Gal(b1-4)GlcNAc(b1-2)[GlcNAc(b1-3)Gal(b1-4)GlcNAc(b1-3)Gal(b1-4)GlcNAc(b1-3)Gal(b1-4)GlcNAc(b1-3)Gal(b1-4)GlcNAc(b1-6)]Man(a1-6)[GlcNAc(b1-3)Gal(b1-4)GlcNAc(b1-3)Gal(b1-4)GlcNAc(b1-3)Gal(b1-4)GlcNAc(b1-3)Gal(b1-4)GlcNAc(b1-2)Man(a1-3)]Man(b1-4)GlcNAc(b1-4)[Fuc(a1-6)]GlcNAc
Summary of the method: as §1

[16] = target: GlcNAc(b1-3)Gal(b1-4)GlcNAc(b1-3)Gal(b1-4)GlcNAc(b1-3)GalNAc
Summary of the method: as §1

[17] = target: GlcNAc(b1-3)Gal(b1-4)GlcNAc(b1-3)GalNAc
Summary of the method: as §1

[18] = target: GlcNAc(b1-3)Gal(b1-4)GlcNAc(b1-3)[GlcNAc(b1-3)Gal(b1-4)GlcNAc(b1-3)]GalNAc
Summary of the method: as §1

[19] = target: GlcNAc(b1-3)Gal(b1-4)GlcNAc(b1-6)[Gal(b1-3)]GalNAc
Summary of the method: as §1

[20] = target: GlcNAc(b1-3)Gal(b1-4)GlcNAc(b1-6)[GlcNAc(b1-3)Gal(b1-3)]GalNAc
Summary of the method: as §1

[21] = target: GlcNAc(b1-3)Gal(b1-4)GlcNAc(b1-6)[GlcNAc(b1-3)]Gal(b1-4)GlcNAc
Summary of the method: as §1

B1: Threefoil (Haloarcula marismortui) (protein)
chain: GSSHHHHHHHHHHSSGLVPRGSHMGDGYYKLVARHSGKALDVENASTSDGANVIQYSYSGGDNQQWRLVDLGDGYYKLVARHSGKALDVENASTSDGANVIQYSYSGGDNQQWRLVDLGDGYYKLVARHSGKALDVENASTSDGANVIQYSYSGGDNQQWRLVDL
glycan array binding signal (z-score) [1]: -0.263 | glycan array binding signal (z-score) (GlcNAc(b1-3)Gal(b1-4)Glc): -0.299 | glycan array binding signal (z-score) [2]: -0.26 | glycan array binding signal (z-score) [3]: -0.105 | glycan array binding signal (z-score) [4]: -0.052 | glycan array binding signal (z-score) [5]: -0.215 | glycan array binding signal (z-score) [6]: -0.349 | glycan array binding signal (z-score) [7]: -0.166 | glycan array binding signal (z-score) [8]: -0.012 | glycan array binding signal (z-score) [9]: -0.21 | glycan array binding signal (z-score) [10]: -0.169 | glycan array binding signal (z-score) [11]: 0.158 | glycan array binding signal (z-score) [12]: -0.157 | glycan array binding signal (z-score) [13]: -0.119 | glycan array binding signal (z-score) [14]: 0.011 | glycan array binding signal (z-score) [15]: -0.088 | glycan array binding signal (z-score) [16]: -0.318 | glycan array binding signal (z-score) [17]: -0.264 | glycan array binding signal (z-score) [18]: -0.212 | glycan array binding signal (z-score) [19]: -0.241 | glycan array binding signal (z-score) [20]: -0.117 | glycan array binding signal (z-score) [21]: -0.237
